Reference: patent publication US20250179210A1, “ANTI-CEACAM5 ANTIBODIES AND CONJUGATES AND USES THEREOF” (Merck Patent GmbH, priority 2022, published 2025)
Residue numbers refer to the chain shown, from its start. Names and notes keep the numbering of the source.

B1: mAb1-M: anti-CEACAM5 mAb, LALA and YTE mutation; HC SEQ ID NO: 34, LC SEQ ID NO: 14 (antibody)
heavy: EVQLQESGPGLVKPSQTLSLTCTVSDGSVSRGGYYLTWIRQHPGKGLEWIGYIYYSGSTYFNPSLRSRVTMSVDTSKNQFSLKLSSVTAADTAVYYCARGIAVAPFDYWGQGTLVTVSSASTKGPSVFPLAPSSKSTSGGTAALGCLVKDYFPEPVTVSWNSGALTSGVHTFPAVLQSSGLYSLSSVVTVPSSSLGTQTYICNVNHKPSNTKVDKRVEPKSCDKTHTCPPCPAPEAAGGPSVFLFPPKPKDTLYITREPEVTCVVVDVSHEDPEVKFNWYVDGVEVHNAKTKPREEQYNSTYRVVSVLTVLHQDWLNGKEYKCKVSNKALPAPIEKTISKAKGQPREPQVYTLPPSREEMTKNQVSLTCLVKGFYPSDIAVEWESNGQPENNYKTTPPVLDSDGSFFLYSKLTVDKSRWQQGNVFSCSVMHEALHNHYTQKSLSLSPG
light: EIVLTQSPATLSVSPGERATLSCRTSQSVRSNLAWYQQKPGQAPRLLIYAASTRATGIPARFSGSGSGTEFTLTISSLQSEDFAVYYCQQYTNWPFTFGPGTKVDIKRTVAAPSVFIFPPSDEQLKSGTASVVCLLNNFYPREAKVQWKVDNALQSGNSQESVTEQDSKDSTYSLSSTLTLSKADYEKHKVYACEVTHQGLSSPVTKSFNRGEC
B2: mAb2-M: anti-CEACAM5 mAb, LALA, YTE, MTG Tag; HC SEQ ID NO: 34, LC SEQ ID NO: 36 (antibody)
heavy: B1 heavy
light: EIVLTQSPATLSVSPGERATLSCRTSQSVRSNLAWYQQKPGQAPRLLIYAASTRATGIPARFSGSGSGTEFTLTISSLQSEDFAVYYCQQYTNWPFTFGPGTKVDIKRTVAAPSVFIFPPSDEQLKSGTASVVCLLNNFYPREAKVQWKVDNALQSGNSQESVTEQDSKDSTYSLSSTLTLSKADYEKHKVYACEVTHQGLSSPVTKSFNRGECGGTLQSPP
B3: mAb3-M: anti-CEACAM5 mAb, LALA, YTE, K222R, MTG Tag; HC SEQ ID NO: 35, LC SEQ ID NO: 36 (antibody)
heavy: B1 heavy with K224R
light: B2 light
B4: mAb6-M: anti-CEACAM5 mAb, LALA mutation; HC SEQ ID NO: 51, LC SEQ ID NO: 14 (antibody)
heavy: EVQLQESGPGLVKPSQTLSLTCTVSDGSVSRGGYYLTWIRQHPGKGLEWIGYIYYSGSTYFNPSLRSRVTMSVDTSKNQFSLKLSSVTAADTAVYYCARGIAVAPFDYWGQGTLVTVSSASTKGPSVFPLAPSSKSTSGGTAALGCLVKDYFPEPVTVSWNSGALTSGVHTFPAVLQSSGLYSLSSVVTVPSSSLGTQTYICNVNHKPSNTKVDKRV[letters of human IgG1 Fc with changes left out]
light: B1 light
B5: mAb7-M: anti-CEACAM5 mAb, LALA mutation, MTG Tag; HC SEQ ID NO: 51, LC SEQ ID NO: 36 (antibody)
heavy: EVQLQESGPGLVKPSQTLSLTCTVSDGSVSRGGYYLTWIRQHPGKGLEWIGYIYYSGSTYFNPSLRSRVTMSVDTSKNQFSLKLSSVTAADTAVYYCARGIAVAPFDYWGQGTLVTVSSASTKGPSVFPLAPSSKSTSGGTAALGCLVKDYFPEPVTVSWNSGALTSGVHTFPAVLQSSGLYSLSSVVTVPSSSLGTQTYICNVNHKPSNTKVDKRV[letters of human IgG1 Fc with changes left out]
light: B2 light

Tested on: MKN45 cells
Assay: Internalization assay using Cell Discoverer (pHrodo labeled antibodies)
Format: cell-based, human
Details: not tested, expected
Text: A relevant characteristic of an ADC is its internalization into a target-expressing cell and lysosomes, and thus internalization is a relevant property of antibodies to be used as part of ADCs. Antibody internalization rate into the late endosome and lysosome (low pH vesicles) can be monitored by directly labeling the antibodies with a pH-sensitive dye (pHrodo) which emits strong fluorescence at a pH lower than 6.0 upon excitation. This fluorescence can be imaged in the Cell-Discoverer7 (Zeiss) and internalization rate can be calculated.
To analyze the internalization rates of several antibodies, MKN45 cells were seeded in a 96 well, dark, flat clear bottom plate (Cellvis) at 25,000 cells/well. Cells were cultivated over night with 100 μl/well of RMPI-1640+10% FBS (Thermo). Cell media was removed, and cells were stained with 100 μl of 10 μg/ml Hoechst dye diluted in PBS×1 for 15 min at room temperature (RT) in the dark. Cells were then washed twice with PBS×1.
Plate was incubated in the Cell Discoverer at 37° C., 5% CO2, for 20 hours, and images were acquired every 20 minutes, as further described below.
Internalization of pHrodo labeled antibodies into the late endosomes and lysosomes of cells was imaged by Cell-Discoverer7 (Zeiss) using fluorescence at excitation of 567 nm and emission detector of 592/25 nm. Cell nuclei were labeled with Hoechst and imaged at excitation of 385 nm and emission detector of 425/30 nm.
Fluorescence of each well was recorded every 20 min for 20 h. Analysis of Sum Fluorescence Intensity per cell (SFI) was calculated by the Zen Software (ZEN3.1) and Excel analysis of linear regression.

Row | Molecule | internalization properties (expected)
1 | B1 | expected to show internalization properties corresponding to mAb1
2 | B2 | expected to show internalization properties corresponding to mAb1
3 | B3 | expected to show internalization properties corresponding to mAb1
4 | B4 | expected to show internalization properties corresponding to mAb1
5 | B5 | expected to show internalization properties corresponding to mAb1
